Displacement data for 115 compounds are collected here from PubChem BioAssay AID1240 (Sanford-Burnham Center for Chemical Genomics, 2008).

Structures are written as SMILES. Among all 50,000 compounds or so, about 800 (1.6%) showed an effect of 50% or more. The list shows a part of the results.

The assay addresses Bcl-2-like protein 10 (Homo sapiens) (UniProt Q9HD36). Nature of the assay: TR3 peptide-Bcl-B binding displacers, biochemical primary FP assay, phenotype converters (AID 1240).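 Note: 0% = Bcl-B with tracer peptide and DMSO and 100% = tracer peptide lacking Bcl-B.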 The following applies: GST-Bcl-B / FITC-TR3 peptide fluorescence polarization; stronger effect = higher value; compound at 3.75 mg/L. A general note: In fluorescence polarisation assays a small probe gives low polarisation when free and higher when bound to something large.
Chain of UniProt Q9HD36 (Q9HD36 whole entry, looked up): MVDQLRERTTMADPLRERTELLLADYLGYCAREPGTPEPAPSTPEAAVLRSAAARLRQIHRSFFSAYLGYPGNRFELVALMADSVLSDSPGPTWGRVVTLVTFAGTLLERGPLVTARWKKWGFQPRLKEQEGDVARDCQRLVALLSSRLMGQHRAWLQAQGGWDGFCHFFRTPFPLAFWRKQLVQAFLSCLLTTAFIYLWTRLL
For the compound `Oc1c(Br)cc(Br)cc1C=Nc1ccc(Br)c2cccnc12`, the displacement was 17.7%.
Take `Cc1ccc2c(Cl)c(C(=O)NCc3ccco3)sc2c1`: the displacement is -6.3%.
As to `CCOc1ccc(C=C2C(=O)NC(=O)NC2=O)cc1Cl`, the displacement was found to be 7.5%.
Then `CCc1ccccc1NC(=O)c1cc(Cl)ccc1OC`, with -7.7%; and `COc1ccc(/C=C2\C(=O)NC(=S)N(c3cccc(Br)c3)C2=O)cc1`, with 18.9%; and `Cc1ccc(N=Cc2ccc(Br)s2)cc1[N+](=O)[O-]`, with -3.5%.
For `N#Cc1ccccc1NC(=O)C(Cc1ccc([N+](=O)[O-])cc1)N1C(=O)c2ccccc2C1=O` (stereo not given), the displacement is 6.1%.
For `CCc1nnc(NS(=O)(=O)c2ccc(N/C=C\C(=O)c3ccc4c(c3)OCO4)cc2)s1`, the displacement worked out at 30.8%.
Then `COc1ccccc1C(=O)NNC(=O)COc1ccc(Cl)cc1Br`, with -3.1%.
As for `Cc1cccc(OCC(=O)NC2CCCCCC2)c1`, the figure is 7.8%; as for `C=CCn1c(SCC(=O)N(CCO)CCO)nc2sc3c(c2c1=O)CCC3`, 24%; as for `Cc1ccc(C(=O)Nc2ccccc2CO)cc1[N+](=O)[O-]`, -3.9%.
As for `Oc1[nH]c2ccc(F)cc2c1N=Nc1ccccn1`, the figure is 44.5%.
In the case of `CCc1ccc(-n2c(C)cc(/C=C3/NC(=S)NC3=O)c2C)cc1`, the displacement came to 2.1%.
For `COc1cccc(CN2CCN(C3CCCC(C)C3)CC2)c1OC` (stereo not given), the displacement is -15.9%.
Turning to `O=C1c2cccc([N+](=O)[O-])c2C(=O)N1c1nc(-c2ccccc2)cs1`, the displacement amounted to 12.4%.
With `CC(=O)c1cccc(NC(=O)COc2ccc(Br)cc2C(C)(C)C)c1`, the displacement is -1.2%.
With `Cc1ccc(C(C)C)c(OCCOc2ccc(/C=N/n3cnnc3)cc2)c1`, the displacement was -14.8%.
As to `Cc1ccc(C(=O)NCC2CCCO2)cc1` (stereo not given), the displacement was -8%.
As for `O=c1c(Oc2ccccc2Br)c(C(F)(F)F)oc2c(CN3CCOCC3)c(O)ccc12`, the figure is -1.2%.
`COC(=O)C1=C(C)N=c2s/c(=C\c3ccc(O)cc3)c(=O)n2C1c1ccccc1` (stereo not given): the displacement was 10%.
As to `Clc1ccccc1-c1nnc(-c2ccc(-c3ccccc3)cc2)o1`, the displacement worked out at 5.2%.
As for `CCc1ccc(N2NC(=O)CC2=O)cc1`, the figure is 25.9%; as for `O=S(Cc1ccccc1)CC(O)COc1ccccc1` (stereo not given), -0.9%.
For `COc1cccc(NC2=NS(=O)(=O)c3ccccc32)c1`, the displacement is -5.9%.
For the compound `CN(C)CCNCCP(=O)(c1ccccc1)c1ccccc1`, the displacement was 0.3%.
In the case of `O=S(=O)(NCc1ccc(F)cc1)c1ccc2ccccc2c1`, the displacement was 15%.
For the compound `Cn1c2c(c(=O)n(C)c1=O)C(c1ccc([N+](=O)[O-])o1)C1=C(N2)c2ccccc2C1=O` (stereo not given), the displacement was -5.4%.
On to `O=C(O)c1ccc(Oc2ccc(-c3ccc(Oc4ccc(C(=O)O)c(C(=O)O)c4)cc3)cc2)cc1C(=O)O`, for which the displacement is -1.9%.
As to `O=[N+]([O-])c1cc(F)c(N2CCOCC2)cc1N1CCCCC1`, the displacement stood at 13.3%.
`COC(=O)c1c(C)nc2n(Cc3ccccc3Cl)c3ccccc3n12`: the displacement was -13.1%.
For the compound `COc1cc(C(=O)Nc2ccc3oc(-c4ccc(C)cc4C)nc3c2)cc(OC)c1OC`, the displacement was -2.6%.
As for `Cc1c(-c2ccccc2)[nH]n2c(=O)cc(-c3ccccc3)nc12`, the figure is 4.9%; as for `COc1cc(/C=C2\SC(=S)NC2=O)cc(Br)c1OCc1c(C)no[n+]1[O-]`, -22.2%; as for `CCCCc1c(C)nc(N/N=C/c2cccc(OC)c2O)[nH]c1=O`, 0.1%.
On to `COc1nnc(-c2ccc(Cl)cc2)c2ccccc12`, for which the displacement is 2.1%.
With `Cc1c(Cl)cccc1NC(=O)C(=O)NCCCN1CCOCC1`, the displacement is -13%.
As for `CCN(Cc1ccccc1)S(=O)(=O)c1c(C)cc(C)cc1C`, the displacement is -4.8%.
For `O=C1/C(=C/C2CC=CCC2)SC(=S)N1C1CCS(=O)(=O)C1` (stereo not given), the displacement amounted to 9.6%.
Consider `O=C(O)CCCNC(=O)c1cncc(Br)c1`, for which the displacement is 18.8%.
Then `COC(=O)c1ccc(C2Nc3cc(C)c(C)cc3NC3=C2C(=O)CC(C)(C)C3)cc1` (stereo not given), with -1.2%; and `COc1ccc(C2=CC(=O)C=CC2=O)cc1`, with 40.7%.
Regarding `O=S(=O)(Nc1ccccc1C(F)(F)F)c1ccccc1`, the displacement is 1.6%.
With `CC1CCC(N2CCN(Cc3cccnc3)CC2)CC1` (stereo not given), the displacement amounted to 2.5%.
Then `Cc1ccc2oc(C(=O)Nc3ccc([N+](=O)[O-])cc3Cl)c(C)c2c1`, with 3.4%; and `O=C(NCCc1ccccc1)C(=O)NCc1ccc2c(c1)OCO2`, with 3.2%.
Consider `CCCCOCP(=O)(c1ccccc1)c1ccccc1`, for which the displacement turned out to be 1.1%.
Turning to `Cc1ccc(C)c(Nc2nc3c(s2)CCCC3)c1`, the displacement is -6.3%.
As to `CCOC(=O)c1[nH]cnc1C(=O)Nc1ccccn1`, the displacement is 13.8%.
Turning to `N#Cc1cc([N+](=O)[O-])ccc1N=Cc1ccc(C#Cc2ccccc2)cc1`, the displacement is 4.4%.
In the case of `CCCOc1nc2ccccc2nc1NS(=O)(=O)c1ccccc1`, the displacement came to 13.9%.
With `C=CCN1C(=O)NC(=O)/C(=C\c2cccc(OCc3ccccc3Cl)c2)C1=O`, the displacement is -8.4%.
In the case of `O=C(/C=C/Nc1ccccc1O)C(F)(F)F`, the displacement amounted to 2.7%.
Then `C=CCn1c(O)c(N=NC(=O)c2cc(C)[nH]n2)c2cc(Br)ccc21`, with -7.3%; and `Cc1cccc(NCN2C(=O)c3ccccc3C2=O)c1`, with 5.8%.
For `O=C1C=C/C(=N/S(=O)(=O)c2ccc(F)cc2)C=C1Br`, the displacement is -9.6%.
Regarding `CO/N=C(/C(=O)O)c1cn2ccccc2n1`, the displacement is -5.3%.
Regarding `Cc1ccsc1C=Nc1cccc([N+](=O)[O-])c1`, the displacement is 1.2%.
Then `O=C(NN=C1CCCC1)C(O)(c1ccccc1)c1ccccc1`, with 13.7%; and `CS(=O)(=O)N1CCN(C(=O)c2ccc(-c3ccccc3)cc2)CC1`, with 11.6%.
In the case of `Cc1ccccc1NC(=S)NC(=O)C12CC3CC(CC(C3)C1)C2`, the displacement was -4.8%.
As for `Cc1ccc(C)c(NC(=O)C(=O)NCc2ccccc2Cl)c1`, the figure is -1.7%; as for `Cc1cc(C)nc(S(=O)CC(O)COc2ccccc2)n1` (stereo not given), -4.7%.
Then `Cc1ccccc1CC1S/C(=N/N=C/c2ccccc2F)NC1=O` (stereo not given), with -14.3%.
As for `Cc1cccc(N2CCN(C(=O)CCCOc3ccc(Cl)cc3Cl)CC2)c1C`, the figure is 1.1%; as for `CC(O)Cn1c2ccc(Cl)cc2c2cc(Cl)ccc21` (stereo not given), -6%; as for `Nc1nnc(SCc2ccc(Cl)c(Cl)c2)s1`, 7.3%.
In the case of `CCN(CC)c1nc(C)cc(COC)c1C#N`, the displacement is -1.4%.
`CC(=O)c1cccc(NC(=O)C2CCCCC2)c1`: the displacement is -2.5%.
Then `CCOc1ccccc1C(=O)Nc1sc(C)c(C)c1C#N`, with 24%; and `O=C(CCCOc1ccccc1)Nc1ccc2c(c1)OCCO2`, with -7.5%.
Then `O=C(Nc1ccc(Cl)cc1Cl)C1CCCO1` (stereo not given), with -11.4%; and `CCOC(=O)c1c(NC(C)=O)sc2c1CCC2`, with 7.1%; and `CC(C)OC(=O)c1c(-c2ccccc2)csc1N`, with -1.9%.
Consider `CCCOc1ccc(C(=O)Nc2ncc(Cc3ccccc3Cl)s2)cc1`, for which the displacement is -1.7%.
In the case of `COc1ccc(C2Nc3ccccc3C(=O)N2Cc2ccco2)cc1CN1C(=O)c2ccccc2C1=O` (stereo not given), the displacement was -4.5%.
As to `O=C1S/C(=C/c2ccc(-c3cccc([N+](=O)[O-])c3)o2)C(=O)N1c1ccccc1`, the displacement turned out to be 111%.
Take `CCOc1ccc(Nc2nc(-c3c(C)nc4sccn34)cs2)cc1`: the displacement was -20.2%.
Take `O=C(N/N=C/c1ccc(Cl)cc1Cl)c1cc(O)cc(O)c1`: the displacement is -2.8%.
With `CCOC(=O)c1c(NC(=O)c2ccc(OC)c(OC)c2)sc(C(=O)N(CC)CC)c1C`, the displacement was 0.6%.
Then `CCOC(=O)c1c(CC(C)C)csc1NC(=O)c1ccccc1C(=O)O`, with 1.1%.
As to `CCOC(=O)C1=C(O)/C(=C/c2ccco2)SC1=Nc1ccc([N+](=O)[O-])cc1`, the displacement was 2.6%.
As for `O=C(c1ccccc1F)N1CCN(c2cc(N3CCOCC3)c(F)cc2[N+](=O)[O-])CC1`, the figure is -8.1%; as for `CN1C(=O)NC(=O)/C(=C/c2ccc(-c3cccc(Cl)c3)o2)C1=O`, 81.5%.
Turning to `O=C1CCCC2=C1C(c1ccccc1Cl)Nc1ccc(C(=O)c3ccccc3)cc1N2` (stereo not given), the displacement amounted to 17.6%.
Turning to `O=C(/C=C/c1cccs1)OCCNC(=O)c1cccnc1`, the displacement was -7.3%.
Consider `COc1ccc(CN2CCN(Cc3ccccn3)CC2)cc1Br`, for which the displacement was -5.1%.
Take `COC(=O)C1=C(O)/C(=C\c2cccc(Br)c2)N=C1C`: the displacement was found to be 12.7%.
As for `COc1ccc(C(=O)Nc2ncc([N+](=O)[O-])s2)cc1OC`, the figure is 15%.
`Cc1ccc(/C=C/C(=O)Nc2ccc3c(c2)OCO3)cc1`: the displacement was found to be 10.7%.
`O=C(c1cc2n(n1)C(C(F)(F)F)CC(c1ccco1)N2)N1CCCc2ccccc21` (stereo not given): the displacement was 1.1%.
Turning to `O=C(NCc1cccnc1)c1cc2nc(-c3ccc(Cl)cc3)cc(C(F)(F)F)n2n1`, the displacement came out at 11.9%.
As for `Cc1ccc(OCCCN2CCOCC2)c(C(C)(C)C)c1`, the displacement came to 3.9%.
Turning to `Cc1ccc(-c2cc3nc(-c4ccccc4)cc(C)n3n2)cc1`, the displacement is -11.6%.
Consider `O=C(Nc1ccc2c(c1)OCO2)c1nn2c(c1Cl)NC(c1ccc(Br)cc1)CC2C(F)(F)F` (stereo not given), for which the displacement was -0.7%.
Then `Cc1cc2c(cc1C)NC(c1cc(Br)ccc1F)C1=C(CC(C)(C)CC1=O)N2` (stereo not given), with -3%.
`Oc1ccc(Cc2nc3ccccc3[nH]2)cc1`: the displacement turned out to be 2.4%.
Turning to `O=C(Nc1ccccc1CO)c1ccc(F)cc1`, the displacement stood at 5.2%.
Turning to `CCCOc1ccc(-c2ccc(-c3nc(-c4cccnc4)no3)cc2)cc1`, the displacement was -7%.
As for `CC(C)CNC(=O)c1cc(-c2cccs2)nc2ccccc12`, the figure is -4.7%; as for `CC(C)c1ccc(C(=O)NC2CC2)cc1`, -2.5%; as for `CC(C)(C)OC(=O)NNC(=O)c1ccc(Cl)cc1`, -2%.
For the compound `O=Cc1ccc(-c2ccc(C(=O)O)cc2)o1`, the displacement stood at 10.5%.
Regarding `CCC(=O)CC(O)(c1ccccc1)C(F)(F)F` (stereo not given), the displacement amounted to 13.2%.
`O=C(Cc1ccccc1[N+](=O)[O-])NCc1ccncc1`: the displacement was -7.9%.
As for `Cc1ccc(OCC(=O)Nc2sc3c(c2C#N)CCCC3)cc1`, the displacement was -2.3%.
Turning to `O=C(c1ccccc1)C(Sc1ccc(Br)cc1)C(=O)c1ccccc1`, the displacement is 11.6%.
Then `Cc1cccc(N2C(=O)NC(=O)/C(=C/c3cccc4ccccc34)C2=O)c1`, with -9.5%; and `Cc1cc(C)cc(-n2c(C)cc(/C=N/NC(=O)c3ccncc3)c2C)c1`, with -23.1%.
Regarding `CCOC(=O)C(NC(=O)c1ccccc1)=C1CCCCC1`, the displacement was 12.4%.
For the compound `CCOc1cc(/C=N/n2cnnc2)cc(Cl)c1OCCOc1cc(C)ccc1C(C)C`, the displacement is -2.6%.
As for `COc1cc(/C=C2/SC(=S)N(CCC(=O)Nc3ccc(C(C)=O)cc3)C2=O)cc(OC)c1OC`, the displacement worked out at 12.2%.
As for `O=C1c2ccccc2C(=O)N1CC(O)COC1CCCCC1` (stereo not given), the figure is -5.1%.
For `Cc1cc(C2C3=C(CC(C)(C)CC3=O)N=C3c4ccccc4C(=O)C32)cc(C)c1O` (stereo not given), the displacement was -2.1%.
Turning to `COc1ccc(C(=O)c2ccc(OC)cc2)cc1`, the displacement was found to be 1.8%.
